Experimental data published in the supplement of paper PMC11417369.
Some of the results follow.

Tested on: PfHDP1 homeodomain (GST-tagged)
Assay: gcPBM binding intensity (ln(normalized median fluorescence intensity)); higher = stronger DNA binding
Outline: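 DNA-binding domains from P. falciparum, fused to GST and produced in E. coli, were put on an Agilent 4 × 180k double-stranded probe array for 1 h in 1× PBS holding 1% milk, 0.2 mg/ml BSA, 0.5% salmon testes DNA and 0.03% Triton X-100. Probes were primer-extended, 36 bp long and drawn from intergenic genomic regions, with negative controls included. After Alexa488 anti-GST antibody detection and a 488 nm scan, binding intensity was set as the highest Masliner-normalised natural-log median intensity across replicate spots of either probe orientation.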

| Sequence | gcPBM binding intensity (ln) |
| --- | --- |
| TTAATTTATTTATGCACACATATATAATTACACATA [CACACA_site4544] | 10.7 |
| TATAACTATTTATAATGTACTCATGTATAATTATAT [XGTACX_site7913] | 6.38 |
| TGCTATAATTTATATACACACAAATATATACTCATA [CACACA_site6111] | 6.51 |
| TTTTATCGATATATCTGTACATATTACTTATAATAA [XGTACX_site57] | 6.98 |
| ATGCTTTTGTCATGTGCACACACGTATATATTATAT [CACACA_site4163] | 11 |
| AAAAAAAAAAAAAATGCATGTGCGTAAATAATAATA [TGCATGCA_site793] | 7.55 |
| AGTATTTTAATTTCAGTGCATTTTATTCTATAATTA | 8.98 |
| ATATATATCTATATTTGTACATATTACATTCAAGTT [XGTACX_site1749] | 6.82 |
| TTTAGGAAAGGCGGCACACATTTATATATTTATTTA [CACACA_site5931] | 6.11 |
| AAGTTTTCTTACAGATGTACTTTTTAAAAATAAACT [XGTACX_site6632] | 6.67 |
| AAAAAAAAAAAAAGATGTACATATATTTTTATTATA [XGTACX_site654] | 6.3 |
| AAGGATATAAAAAAACGTACGTACGATAATATAATT [XGTACX_site1292] | 6.58 |
| AACCATTCTTCTAATTGTACATTGAAAAATCATGAT [XGTACX_site3854] | 6.47 |
| TTAGCAACTATTACTACACACATTTGTATATAATTT [CACACA_site1591] | 6.61 |
| TTTTTTTTTTCTTGTTGTACTTTTAATAATTCATAT [XGTACX_site4704] | 6.79 |
| GAAATTTTTAAAAAGGTGCTTTTAACAAAAATTATT [GTGCAC_site9687] | 6.05 |
| TTATTAAAAAAAATATGTACTCACAATATAATATAT [XGTACX_site3738] | 6.42 |
| ACCATCCTTAATACTTATTTTTTCACAATTAAGTAA [GTGCAC_negctrl_site269] | 6.56 |
| TATATATATATAACATGTACATAAAATACATTTATA [XGTACX_site7370] | 8.93 |
| ACATTATATAAAATATGTACACATAAATAAATAAAT [XGTACX_site5031] | 6.68 |
| TCATATTATAAAAAATGTACAAGGAAAAAATATATA [XGTACX_site337] | 7.14 |
| TAATTTTGTAAAAATTGTACATATTTATCTTTTTAT [XGTACX_site4305] | 6.06 |
| AAAAAAAAAAAAAACACACACATATAATATATTTAA [CACACA_site1337] | 6.35 |

| Sequence | gcPBM binding intensity (ln) |
| --- | --- |
| CCTACAATTCGTAATACACACACATATATATATATA [CACACA_site9251] | 9.17 |
| AAAAAATTCAAAATCACACATAAAAAAGGACACATA [CACACA_site5972] | 6.86 |
| ATAATAATATTATTTTGTACATATGTGCTTATTTAT [XGTACX_site5540] | 7.11 |
| AGTAATAAGTAATTTACACACATATTATAGCATCAC [CACACA_site6971] | 6.64 |
| TTTTGTCAACATTTTTATATTAGGTCTTGAACGATT [GTGCAC_negctrl_site72] | 6.25 |
| GTATAATTTAAAAAGTGTACATAAAGTTTTTATTAA [XGTACX_site1090] | 6.18 |
| TTATTACCATATTTTGTACACACATCTTTATCTCAA [CACACA_site9054] | 7.02 |
| CTTGGGCGTCATAATGAACACACAATTATATTATGA [CACACA_site9297] | 6.13 |
| ATATATACAAATCCTTTTTTCCAAGATGGAAAAAGA [CACACA_negctrl_site382] | 6.21 |
| AAAATAATAAATAACGCATGCGTGTGCATTTTATTC [TGCATGCA_site898] | 9.97 |
| TATATATAAGCGCATGCACACGCAAAGGTATATAAA [CACACA_site8107] | 8.49 |
| ATTATATAATCTATATGTACATATATATATATATAT [XGTACX_site4970] | 9.36 |
| TTTTTTTTTTACTTCACACATATACATTTATATTTA [CACACA_site4385] | 6.8 |
| TAAACATACAGATACACACACACACCCACAGAGACA [CACACA_site4429] | 7.07 |
| ATATATATGGTCATTTGTACATATCGTGAGAGCTGC [XGTACX_site4117] | 6.55 |
| ATATAACATAATGGATGTACATGTATAAATATAAAA [XGTACX_site8228] | 7.06 |
| AGAATCACCAAATATGTACACACCTTAACATGTTTA [CACACA_site2068] | 6.77 |
| TATATTATAAATTAATGTACGTAATTTTTTTTTTTT [XGTACX_site2500] | 6.17 |
| ATAATGAAGACTTTTTTACACACTTCATATATTATA [CACACA_site8630] | 6.98 |
| TGATATTTTTCCATAGTGCAAAATATAGTAATGTAT | 9.38 |
| AAATTGTTAAAAAGAAGTACATTCTTTTATTTCTTA [XGTACX_site540] | 6.06 |
| TAAATGTGTATATATTGTACAAATATTAATACATAC [XGTACX_site8102] | 6.62 |
| AAAGAACTTAATGCTGCACACAAAAAAAAGGAAAAA [CACACA_site8375] | 7.33 |

| Sequence | gcPBM binding intensity (ln) |
| --- | --- |
| AGAACGACTAAGCAGTGTACATTTTGTATATACAAT [XGTACX_site2831] | 6.5 |
| TTACATACATACAAGTGTACGCATATATTAATATTA [XGTACX_site4006] | 6.71 |
| TTTAACATTTCAGATGTGCACATTTTCCGAACCAGT | 10.9 |
| ATATGTACAAGTTATACACACATGTACAGTTATATA [CACACA_site6706] | 6.82 |
| AGTATACATATATATACACACACATATATATATATA [CACACA_site7883] | 9.29 |
| CTTATATGAAGCCTCTTTATTCATAAATAAGAATAA [TGCATGCA_negctrl_site120] | 6.16 |
| CCAACATAGAGGGGCACACACATATATACATAAAAA [CACACA_site1847] | 6.7 |
| TTAACAAAATTTCCGTGTACGTAAATAAGAACATAG [XGTACX_site7200] | 6.64 |
| AAACAACATGGACACGCACACACAAAAAAAGCATGC [CACACA_site73] | 6.85 |
| ATGAATATAAAATATACACACTTATATATTGAATGA [CACACA_site4274] | 6.35 |
| GTTAATTCATTAAGGACACACAAAAAAAAAAAAAAA [CACACA_site998] | 6.25 |
| GATTAAATTTGACACTGTACAAAAAATAAAATGAGG [XGTACX_site504] | 6.79 |
| AGAAAAAAACGGTACAGTACACATAAACTAATTATT [XGTACX_site8617] | 6.44 |
| TATTATATATGGAAGTAATAATATATATATATATAT [GTGCAC_negctrl_site63] | 9.07 |
| ACAAACTAAAAAAGAAGTACAAATCGTATTAATAAT [XGTACX_site8684] | 6.6 |
| TTTTTTGAAAATAAAAGTACAAATTTTATATTTAAA [XGTACX_site2758] | 5.65 |
| ATATATTAAAAACGATGTACCCTGAACTAAAAAAAA [XGTACX_site4986] | 6.52 |
| TATTTATTTATGTGTTGTACAAATAAATAGAGGTAT [XGTACX_site6408] | 6.85 |
| TTTATTTATTACAATTTTTGAATCACCACACAGTCG [GTGCAC_negctrl_site413] | 6.62 |
| ATCATGTTATATACATGTACATATATATATATATAT [XGTACX_site1329] | 9.34 |
| TATATGAAAATGTTCATACACACATAAAAAAAAAAA [CACACA_site3237] | 6.41 |
| CATATTTCTTTATTGGCACACATTTTTTCAATTATA [CACACA_site1618] | 6.87 |
| TGAAATAAATAATGCACACTCTACAGATATACGTAT [CACACA_site5270] | 10.1 |

| Sequence | gcPBM binding intensity (ln) |
| --- | --- |
| TTGAAAATACAAAATTGTACAAAGATTTAAATAAAA [XGTACX_site1182] | 6.63 |
| TGTTATTACTTTATATCATCTTAAAATAAGCATATT [CACACA_negctrl_site1501] | 6.26 |
| AAAAAAAAAAAAAACACACACAAATTTAATCTATAT [CACACA_site6894] | 6.63 |
| TTTCTTAAATATATTGAGGAATAAAAAGAAGAAAAG [GTGCAC_negctrl_site281] | 6.51 |
| TTATGAAAAATAAAATTAGAAAAAAAGGAAAATGAA [XGTACX_negctrl_site232] | 6.64 |
| AAAAAATTATAAAAGTGTACATATATATATATATAT [XGTACX_site154] | 9.48 |
| AGGTTACATAGATTTTGTACATATATATTATTTTTT [XGTACX_site3040] | 6.38 |
| TAGTTTTCTTAAAGATGTACATTTTAAAAATAATCT [XGTACX_site255] | 6.37 |
| TAGATATATAATTTGCGTACACAAATAATATATTTT [XGTACX_site6397] | 6.23 |
| AATACAAATATATACACACATACATACATACATATA [CACACA_site3147] | 6.79 |
| ATATATATATGTTACTGTACTAATTTATATGTTAAT [XGTACX_site3341] | 8.6 |
| CACAAAAATAGACACACACACATATAGATTTATTAT [CACACA_site7676] | 6.66 |
| ATACACATATGTTAATGTACACATATATAATATTTA [XGTACX_site163] | 6.8 |
| TTATGGTTTAAATAAAGTACAAATAAATAAATATAT [XGTACX_site5777] | 6.38 |
| TTCATTCAAATTAACGTGCACATTATTAGTAAAAAC | 10.7 |
| TTATATAATTTAATAGTGCAATTATATTAATTTTTC | 8.66 |
| GTTCATACTTAATATTGTACTTTTCATGTAGTGTAT [XGTACX_site6613] | 6.44 |
| TACAAATATATATGCACACACATATACATACATATA [CACACA_site2182] | 10.4 |
| TATTAGATATAATATATACACACCAACGAACGAAGA [CACACA_site1134] | 7.28 |
| AAATAAATATTTATATGTACATATATTTTATAATAC [XGTACX_site7041] | 6.6 |
| TAACATATTTTTAATACACACTCAAAAAAGTACTTA [CACACA_site5638] | 6.51 |
